Measured values from patent US20090068110A1, “ANTIBODIES TO INSULIN-LIKE GROWTH FACTOR RECEPTOR” (Genentech, Inc., priority 2006, published 2009).

Tests used:
human IGF-1R-ECD [1] = target: T1, human IGF-1R-ECD (Homo sapiens, UniProt P08069); experiment: solid phase binding assay
T1 construct: containing the extracellular domain (ECD, amino acids 1-902) tagged with 10 or 12 histidine residues at the carboxyl terminus; His10 or His12 (C); made in house; host or cells: CHO cells

human IGF-1R-ECD [2] = target: T1, human IGF-1R-ECD; experiment: phage-competition ELISA (phage IC50); conditions: humanized hybridoma-derived clones displayed on phage as monovalent Fab; read-out: binding affinity (phage IC50) against IGF-1R-ECD
Method: MAXISORP™ microtiter plates were coated with human IGF-1R-ECD at 5 μg/ml in PBS overnight and then blocked with CASEIN BLOCKER™ reagent (Pierce Biotechnology, Inc.). Phage from culture supernatants were incubated with serially diluted IGF-1R-ECD in PBS with 0.05% TWEEN 20™ surfactant (PBST) containing 1% bovine serum albumin (BSA) in a tissue-culture microtiter plate for 1 hour, after which 80 μl of the mixture was transferred to the target-coated wells for 15 minutes to capture unbound phage. The plate was washed with PBST, and HRP-conjugated anti-M13 (Amersham Pharmacia Biotech) was added (1:5000 in PBST containing 1% BSA) for 40 minutes. The plate was washed with PBST and developed by adding tetramethylbenzidine (TMB) substrate (Kirkegaard and Perry Laboratories, Gaithersburg, Md.). The absorbance at 450 nm was plotted as a function of target concentration in solution to determine an IC50. […] For the humanized hybridoma-derived clones, 2B4, 9F2, and 10H5, phage-Fab was used.
This assay was conducted as described in Section 1-II-A-(4) of this Example. For the YW95-phage-derived clones from the VH/VL phage library, phage-Fab-Zip was used.

B1: h10H5.vX: humanized anti-IGF-1R antibody, direct HVR graft of murine 10H5; heavy chain SEQ ID NO:90, light chain SEQ ID NO:91 (protein)
chain 1: MGWSCIILFLVATATGVHSEVQLVESGGGLVQPGGSLRLSCAASGYTFTRFWIHWVRQAPGKGLEWVGEINPSNGRTNYNENFKNRFTISADTSKNTAYLQMNSLRAEDTAVYYCARGGRLDQWGQGTLVTVSS[skipping human IgG1 constant region]
chain 2: MGWSCIILFLVATATGVHSDIQMTQSPSSLSASVGDRVTITCKASQNVGSNVAWYQQKPGKAPKLLIYSASYRYSGVPSRFSGSGSGTDFTLTISSLQPEDFATYYCHQYNNYPYTFGQGTKVEIKRTVAAPSVFIFPPSDEQLKSGTASVVCLLNNFYPREAKVQWKVDNALQSGNSQESVTEQDSKDSTYSLSSTLTLSKADYEKHKVYACEVTHQGLSSPVTKSFNRGEC
Q: How did the IC50 (human IGF-1R-ECD [1]; biotinylated IGF-I 80 ng/mL, read-out: IC50, inhibition of IGF-I binding to IGF-1R) turn out when B1 was run?
A: Its IC50 is 3.4 nM.

Q: What about the IC50 (human IGF-1R-ECD [1]; biotinylated IGF-II 80 ng/mL, read-out: IC50, inhibition of IGF-II binding to IGF-1R) of the same molecule?
A: Its IC50 is 3.4 nM.

Q: What about the IC50 (human IGF-1R-ECD [2]) of the same molecule?
A: Its IC50 is 1.1 nM.
